# Measurements reported in US9890133B2 (priority 2011, dated 2018).
# Legend:
# Coxsackie B1 = experiment: organism not typed; conditions: read-out: Coxsackie B1 EC50
# Coxsackie B3 = experiment: microbe, parasite or virus in culture; conditions: Enterovirus B, B3, read-out: Coxsackie B3 EC50
# Rhinovirus = experiment: microbe, parasite or virus in culture; format: cell-based; conditions: Enterovirus
# [1] = HRV14, read-out: Rhino HRV14 EC50
# [2] = HRV21, read-out: Rhino HRV21 EC50
# [3] = HRV71, read-out: Rhino HRV71 EC50
Structure (SMILES),EC50 (Coxsackie B1) [µg/mL],EC50 (Coxsackie B3) [µg/mL],EC50 (Rhinovirus; [1]) [µg/mL],EC50 (Rhinovirus; [2]) [µg/mL],EC50 (Rhinovirus; [3]) [µg/mL]
"CC(C)c1ccc2c(c1)OC1(O)c3cccc(N)c3C(=O)C21NC(=O)c1ccc[nH]1 (stereo not shown) [Example 233, N-(1-Amino-4b-hydroxy-7-isopropyl-10-oxo-9b,10-dihydro-4bH-indeno[1,2-b]benzofuran-9b-yl)-1H-pyrrole-2-carboxamide]",< 0.01,< 0.01,< 0.01,< 1,< 1
"COc1cc(C(=O)NC23C(=O)c4c(N)cccc4C2(O)Oc2cc(C(C)C)ccc23)ccn1 (stereo not shown) [Example 234, N-(1-Amino-4b-hydroxy-7-isopropyl-10-oxo-9b,10-dihydro-4bH-indeno[1,2-b]benzofuran-9b-yl)-2-methoxyisonicotinamide]",< 0.01,< 0.01,< 0.01,< 1,< 1
"CC(C)c1ccc2c(c1)OC1(O)c3cccc(N)c3C(=O)C21NC(=O)c1cc2ccccc2s1 (stereo not shown) [Example 235, N-(1-Amino-4b-hydroxy-7-isopropyl-10-oxo-9b,10-dihydro-4bH-benzo[d]indeno[1,2-b]furan-9b-yl)benzo[b]thiophene-2-carboxamide]",< 0.01,< 0.01,< 0.01,< 1,< 1
"CC(C)c1ccc2c(c1)OC1(O)c3cccc(N)c3C(=O)C21NC(=O)c1cnnc2ccccc12 (stereo not shown) [Example 238, N-(1-Amino-4b-hydroxy-7-isopropyl-10-oxo-9b,10-dihydro-4bH-benzo[d]indeno[1,2-b]furan-9b-yl)cinnoline-4-carboxamide]",< 0.01,< 0.01,< 0.01,< 1,–
"CC(C)c1ccc2c(c1)OC1(O)c3ccccc3C(=O)C21NC(=O)c1ccc2[nH]cnc2c1 (stereo not shown) [Example 240, N-(4b-hydroxy-7-isopropyl-10-oxo-9b,10-dihydro-4bH-benzo[d]indeno[1,2-b]furan-9b-yl)-1H-benzo[d]imidazole-5-carboxamide]",< 0.01,< 0.01,< 0.01,–,–
"CC(C)c1ccc2c(c1)OC1(O)c3cccc(N)c3C(=O)C21NC(=O)c1n[nH]cc1[N+](=O)[O-] (stereo not shown) [Example 242, N-(1-Amino-4b-hydroxy-7-isopropyl-10-oxo-9b,10-dihydro-4bH-benzo[d]indeno[1,2-b]furan-9b-yl)-4-nitro-1H-pyrazole-3-carboxamide]",< 0.01,< 0.01,< 0.01,< 1,< 1
"Cc1ccnc(C(=O)NC23C(=O)c4c(N)cccc4C2(O)Oc2cc(C(C)C)ccc23)c1 (stereo not shown) [Example 243, N-(1-Amino-4b-hydroxy-7-isopropyl-10-oxo-9b,10-dihydro-4bH-benzo[d]indeno[1,2-b]furan-9b-yl)-4-methylpicolinamide]",< 0.01,< 0.01,< 0.01,–,–
"CC(C)c1ccc2c(c1)OC1(O)c3cccc(N)c3C(=O)C21NC(=O)c1cc(C(F)(F)F)ccn1 (stereo not shown) [Example 244, N-(1-Amino-4b-hydroxy-7-isopropyl-10-oxo-9b,10-dihydro-4bH-benzo[d]indeno[1,2-b]furan-9b-yl)-4-(trifluoromethyl)picolinamide]",< 0.01,< 0.01,< 0.01,–,< 1
"CC(C)c1ccc2c(c1)OC1(O)c3cccc(N)c3C(=O)C21NC(=O)c1ccc(C#N)cn1 (stereo not shown) [Example 245, N-(1-Amino-4b-hydroxy-7-isopropyl-10-oxo-9b,10-dihydro-4bH-benzo[d]indeno[1,2-b]furan-9b-yl)-5-cyanopicolinamide]",< 0.01,< 0.01,< 0.01,< 1,< 1
"CC(C)c1ccc2c(c1)OC1(O)c3cccc(N)c3C(=O)C21NC(=O)c1ncccc1Cl (stereo not shown) [Example 246, N-(1-Amino-4b-hydroxy-7-isopropyl-10-oxo-9b,10-dihydro-4bH-benzo[d]indeno[1,2-b]furan-9b-yl)-3-chloropicolinamide]",< 0.01,< 0.01,< 0.01,–,–
"COc1cc(C(=O)NC23C(=O)c4c(N)cccc4C2(O)Oc2cc(C(C)C)ccc23)nc2ccccc12 (stereo not shown) [Example 247, N-(1-Amino-4b-hydroxy-7-isopropyl-10-oxo-9b,10-dihydro-4bH-benzo[d]indeno[1,2-b]furan-9b-yl)-4-methoxyquinoline-2-carboxamide]",< 0.01,0.013,0.036,–,–
"CC(C)c1ccc2c(c1)OC1(O)c3cccc(N)c3C(=O)C21NC(=O)c1cc2ccccc2cn1 (stereo not shown) [Example 248, N-(1-Amino-4b-hydroxy-7-isopropyl-10-oxo-9b,10-dihydro-4bH-indeno[1,2-b]benzofuran-9b-yl)isoquinoline-3-carboxamide]",< 0.01,< 0.01,< 0.01,–,–
"Cc1cc(C(=O)NC23C(=O)c4c(N)cccc4C2(O)Oc2cc(C(C)C)ccc23)ccn1 (stereo not shown) [Example 249, N-(1-Amino-4b-hydroxy-7-isopropyl-10-oxo-9b,10-dihydro-4bH-indeno[1,2-b]benzofuran-9b-yl)-2-methylisonicotinamide]",< 0.01,< 0.01,< 0.01,< 1,< 1
"CC(C)c1ccc2c(c1)OC1(O)c3cccc(N)c3C(=O)C21NC(=O)c1ccncc1F (stereo not shown) [Example 250, N-(1-Amino-4b-hydroxy-7-isopropyl-10-oxo-9b,10-dihydro-4bH-indeno[1,2-b]benzofuran-9b-yl)-3-fluoroisonicotinamide]",< 0.01,< 0.01,< 0.01,< 1,< 1
"CC(C)c1ccc2c(c1)OC1(O)c3cccc(N)c3C(=O)C21NC(=O)c1ccncc1Cl (stereo not shown) [Example 251, N-(1-Amino-4b-hydroxy-7-isopropyl-10-oxo-9b,10-dihydro-4bH-indeno[1,2-b]benzofuran-9b-yl)-3-chloroisonicotinamide]",< 0.01,< 0.01,< 0.01,< 1,–
"CC(C)c1ccc2c(c1)OC1(O)c3cccc(N)c3C(=O)C21NC(=O)c1nccn1C (stereo not shown) [Example 252, N-(1-Amino-4b-hydroxy-7-isopropyl-10-oxo-9b,10-dihydro-4bH-indeno[1,2-b]benzofuran-9b-yl)-1-methyl-1H-imidazole-2-carboxamide]",< 0.01,< 0.01,< 0.01,–,–
"CC(C)c1ccc2c(c1)OC1(O)c3cccc(N)c3C(=O)C21NC(=O)c1cccc[n+]1[O-] (stereo not shown) [Example 253, 2-((1-Amino-4b-hydroxy-7-isopropyl-10-oxo-9b,10-dihydro-4bH-indeno[1,2-b]benzofuran-9b-yl)carbamoyl)pyridine 1-oxide]",< 0.01,< 0.01,< 0.01,–,–
"CC(C)c1ccc2c(c1)OC1(O)c3cccc(N)c3C(=O)C21NC(=O)c1cnccc1Cl (stereo not shown) [Example 254, N-(1-Amino-4b-hydroxy-7-isopropyl-10-oxo-9b,10-dihydro-4bH-indeno[1,2-b]benzofuran-9b-yl)-4-chloronicotinamide]",< 0.01,< 0.01,< 0.01,–,–
"CC(C)c1ccc2c(c1)OC1(O)c3cccc(N)c3C(=O)C21NC(=O)c1cncc(F)c1 (stereo not shown) [Example 255, N-(1-Amino-4b-hydroxy-7-isopropyl-10-oxo-9b,10-dihydro-4bH-indeno[1,2-b]benzofuran-9b-yl)-5-fluoronicotinamide]",< 0.01,< 0.01,< 0.01,< 1,< 1

# Read-outs that look alike come from different tables or passages of the source.
